Measured values reported in PubChem BioAssay AID1508642 (National Center for Advancing Translational Sciences (NCATS), 2021).
The whole screen tested about 43,000 compounds, of which about 200 (0.47%) were called active. About 12% were inconclusive and are not listed. The call rests on the fitted dose curve; in most records, active means well fitted cell-killing curve with a large enough effect; inconclusive means small, poorly fitted or top-dose-only effect, or effect the other way; inactive means flat fitted curve, though single readings scatter. The list shows a part of the results.
On the % scale 0 is the no-effect control and ±100 the full control effect.

Test: Cell viability qHTS assay in S16 Pmp22-F2sN cells; further: nearly all actives have a fitted effect of over 65% in size
Settings: S16 Pmp22-F2sN Schwann cells viability, CellTiter-Glo, 24 h; series mostly up to 57.5 µM; activity change, negative = cytotoxicity: at the top concentration
Procedure, shortened: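 Viability was measured by CellTiter-Glo luminescence (15 min, room temperature). This followed 24 h at 37 °C of compound exposure (23 nL pin transfer) in S16 Pmp22-F2sN Schwann cells, 500-1,000 per well.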
In the case of `CCc1cccc(NC(=O)Cn2c(=O)n(-c3ccccc3C)c(=O)c3c2c2cc(C)ccc2n3C)c1`, the “activity change, negative = cytotoxicity” value is reported as inactive: 20.6%.
With `COc1cc(OC)c(NC(=O)Cn2c(=O)c(C(F)(F)F)nc3ccccc32)cc1Cl` the “activity change, negative = cytotoxicity” value was inactive: 2.86%.
For `COc1ccc(NCc2cc3cc4c(cc3n(CC(=O)Nc3cccc(F)c3)c2=O)OCO4)cc1`, the “activity change, negative = cytotoxicity” value was inactive: 5.49%.
In the case of `Cc1cccc(N2CCN(S(=O)(=O)c3cn(C)c(C)n3)CC2)c1C`, the “activity change, negative = cytotoxicity” value is reported as inactive: 1.25%.
For `CCOc1ccccc1C(=O)Oc1c(S(=O)(=O)c2ccc(C)cc2)c(C)nn1-c1ccccc1`, the “activity change, negative = cytotoxicity” value was inactive: -0.445%.
With `Cc1ccc(CNC(=O)c2ccc(CS(=O)(=O)Cc3ccc(F)cc3)o2)cc1` the “activity change, negative = cytotoxicity” value was inactive: -2.04%.
For `CCCCc1nn2c(=O)cc(COC(=O)c3cccc(NC(=O)c4cccc(Cl)c4)c3)nc2s1`, the “activity change, negative = cytotoxicity” value was inactive: -0.719%.
In the case of `Cc1ccccc1CN1CCc2nc(N3CCN(c4ncccn4)CC3)ncc2C1`, the “activity change, negative = cytotoxicity” value is reported as inactive: -21.3%.
In the case of `COc1ccc(CCCc2nnc(SCC(=O)Nc3cccc(C)c3)o2)cc1C`, the “activity change, negative = cytotoxicity” value is reported as inactive: 18.7%.
With `O=C(NC1CCCCC1)c1ccc2c(c1)sc1nc(-c3ccc(F)cc3)cn12` the “activity change, negative = cytotoxicity” value was inactive: 8.66%.
In the case of `CCOc1ccc(CNC(=O)c2ccc3c(c2)sc2nc(-c4ccccc4)cn23)cc1`, the “activity change, negative = cytotoxicity” value is reported as inactive: 1.31%.
For `Cn1cnc(S(=O)(=O)N2CCC(C(=O)Nc3ccc(F)cc3F)CC2)c1`, the “activity change, negative = cytotoxicity” value was inactive: -0.946%.
For `Cc1ccc(-c2noc(CNC(=O)COc3cc(C)c(Br)c(C)c3)n2)cc1`, the “activity change, negative = cytotoxicity” value was inactive: 8.84%.
With `CCOCCc1nnc(NC(=O)C(=O)c2cc(C)n(-c3cccc(C)c3)c2C)s1` the “activity change, negative = cytotoxicity” value was inactive: -4%.
With `O=C(NC1CCCCC1)c1ccc2c(c1)N(Cc1cccc(F)c1)C(=O)c1ccccc1S2` the “activity change, negative = cytotoxicity” value was inactive: 16.2%.
For `Cc1ccc(-n2nc(C(=O)N3CCN(c4ccc(F)cc4)CC3)c(=O)n(C)c2=O)cc1`, the “activity change, negative = cytotoxicity” value was inactive: 1.77%.
For `CN(C)CCN(C(=O)c1ccco1)c1nc2c(F)cc(F)cc2s1`, the “activity change, negative = cytotoxicity” value was inactive: 8.51%.
In the case of `CC1CCN(C(=O)CSc2c3c(nc4ccc(Cl)cc24)CCCC3)CC1`, the “activity change, negative = cytotoxicity” value is reported as inactive: 10.1%.
For `CC1=C(c2ccc(C(C)C)cc2)S(=O)(=O)NC1=NCc1ccccc1C`, the “activity change, negative = cytotoxicity” value was inactive: -9.96%.
For `Cc1nc2c3ccccc3nc(NNC(=O)CCC(=O)N3CCN(c4cccc(Cl)c4)CC3)n2n1`, the “activity change, negative = cytotoxicity” value was inactive: 3.02%.
With `Cc1cccc(NC(=O)CSc2nc3ccccc3nc2N2CCC(C)CC2)c1` the “activity change, negative = cytotoxicity” value was inactive: 20.8%.
With `COc1ccc(S(=O)(=O)N(CC(=O)Nc2ccc(F)c(Cl)c2)c2ccc(C)cc2)cc1OC` the “activity change, negative = cytotoxicity” value was inactive: 9.69%.
With `O=C(COc1ccc(F)cc1)Nc1nnc(S(=O)(=O)N2CCc3ccccc32)s1` the “activity change, negative = cytotoxicity” value was inactive: -1.44%.
For `Cc1ccc(NC(=O)CSc2nc3ccc(Br)cc3[nH]2)c(C)c1`, the “activity change, negative = cytotoxicity” value was inactive: -21.8%.
With `Cc1ccc(N2CC(C(=O)NCCS(=O)(=O)N3CCN(c4ccccc4F)CC3)CC2=O)cc1` (stereo not given) the “activity change, negative = cytotoxicity” value was inactive: 6.06%.
With `O=C(Nc1ccc(OC(F)(F)F)cc1)C1CCN(S(=O)(=O)c2ccc3[nH]c(=O)ccc3c2)CC1` the “activity change, negative = cytotoxicity” value was inactive: 8%.
In the case of `COc1cc(C(=O)N2CCN(CCc3ccncc3)CC2)cc(OC)c1OC`, the “activity change, negative = cytotoxicity” value is reported as inactive: 13.9%.
With `COc1cccc(-n2c(=O)c3c(C)c(C(=O)N(C)C)sc3n(Cc3cccc(C)c3)c2=O)c1` the “activity change, negative = cytotoxicity” value was inactive: -18.8%.
In the case of `Cc1ccc(NC(=O)Cn2c(=O)n(CC3CCC(C(=O)NC(C)C)CC3)c(=O)c3sccc32)cc1` (stereo not given), the “activity change, negative = cytotoxicity” value is reported as inactive: 1.64%.
With `COc1ccc(-c2nc(C)c(CCNC(=O)C(=O)Nc3ccccc3F)s2)cc1` the “activity change, negative = cytotoxicity” value was inactive: 13.8%.
With `COc1ccccc1-n1nc(-c2ccccc2)c2cnc3c(F)cc(F)cc3c21` the “activity change, negative = cytotoxicity” value was inactive: 9.08%.
With `COc1ccc(C(CNC(=O)COc2cc(C)cc(C)c2)N2CCCCC2)cc1` (stereo not given) the “activity change, negative = cytotoxicity” value was inactive: -13.7%.
In the case of `COc1ccc(NC(=O)CSC2=Nc3ccccc3C3=NC(CC(=O)NCc4ccccc4OC)C(=O)N23)cc1Cl` (stereo not given), the “activity change, negative = cytotoxicity” value is reported as inactive: -26.8%.
For `COc1ccc(-c2nc3c4ccccc4n(CC(=O)Nc4ccc(C(C)C)cc4)c(=O)n3n2)cc1`, the “activity change, negative = cytotoxicity” value was inactive: 13.7%.
In the case of `Cc1ccccc1-n1c(SCC(=O)Nc2ccc(Cl)cc2Cl)nc(O)cc1=O`, the “activity change, negative = cytotoxicity” value is reported as inactive: 2.66%.
In the case of `COc1ccc(C2CC(=O)N(Cc3ccccc3C)c3c2c(C)nn3-c2nc(C)cc(C)n2)c(OC)c1` (stereo not given), the “activity change, negative = cytotoxicity” value is reported as inactive: -19.6%.
In the case of `COc1ccc(-c2noc(-c3ccc(N4CCN(C)CC4)c([N+](=O)[O-])c3)n2)cc1`, the “activity change, negative = cytotoxicity” value is reported as inactive: 16.3%.
For `COc1ccc(S(=O)(=O)c2c(O)c(C)cc(NS(=O)(=O)c3ccc(Cl)cc3)c2C(C)C)cc1`, the “activity change, negative = cytotoxicity” value was inactive: -25.8%.
For `Cc1cccc(N(C)S(=O)(=O)c2ccc(-c3cc(C)no3)s2)c1`, the “activity change, negative = cytotoxicity” value was inactive: -16.9%.
For `CC(=O)N1CCc2c(sc3c2c(=O)n(-c2ccc(F)cc2)c(=O)n3Cc2cc(C)ccc2C)C1`, the “activity change, negative = cytotoxicity” value was inactive: 1.18%.
With `COc1ccc(N2CC(NC(=O)C(=O)c3c[nH]c4ccccc34)CC2=O)cc1` (stereo not given) the “activity change, negative = cytotoxicity” value was inactive: 0.938%.
With `COc1ccc(CNC(=O)CC(C)n2nc(C)cc2C)cc1` (stereo not given) the “activity change, negative = cytotoxicity” value was inactive: -1.7%.
In the case of `Cc1ccc(-c2nn(-c3ccc(F)cc3F)c3c2cnc2ccc(F)cc23)cc1`, the “activity change, negative = cytotoxicity” value is reported as inactive: -12.7%.
With `Cc1cc(C)cc(NC(=O)N2CCC(C(N)=O)(N3CCCCC3)CC2)c1` the “activity change, negative = cytotoxicity” value was inactive: 4.95%.
In the case of `COc1ccc(N(C)C(=O)c2nn(-c3ccc(C)cc3)c(=O)n(C)c2=O)c(OC)c1`, the “activity change, negative = cytotoxicity” value is reported as inactive: -0.0257%.
For `CCOC(=O)N1CCC(NC(=O)c2cnn(-c3ccc(F)cc3)c2-n2cccc2)CC1`, the “activity change, negative = cytotoxicity” value was inactive: 12.1%.
In the case of `CC1CCCN(c2ncnc3c2cnn3-c2ccc(F)cc2)C1` (stereo not given), the “activity change, negative = cytotoxicity” value is reported as inactive: 10.9%.
With `CCN1c2ccccc2-n2cccc2C12CCN(C(=O)Nc1ccccc1Br)CC2` the “activity change, negative = cytotoxicity” value was inactive: -7.26%.
With `CCCCn1cc(S(=O)(=O)c2ccccc2)c(=O)c2cc(F)c(N3CCN(CCC)CC3)cc21` the “activity change, negative = cytotoxicity” value was inactive: -14.8%.
With `CCOCCn1ccc2c(OCC(=O)NCc3ccc(F)cc3)cccc2c1=O` the “activity change, negative = cytotoxicity” value was inactive: 14.3%.
For `O=C(CCSCc1cccc(Cl)c1)NCc1ccccc1Cl`, the “activity change, negative = cytotoxicity” value was inactive: 1.55%.
In the case of `CC(C)Oc1ccc(C(=O)N2CCN(c3nc4c(F)cc(F)cc4s3)CC2)cc1`, the “activity change, negative = cytotoxicity” value is reported as inactive: 13.5%.
In the case of `O=c1c(N2CCN(c3ccccc3)CC2)csc2ccc(Cl)cc12`, the “activity change, negative = cytotoxicity” value is reported as inactive: 7.42%.
With `Cc1ccc2nc(NC(=O)c3nc(SCc4ccccc4F)ncc3Cl)sc2c1` the “activity change, negative = cytotoxicity” value was inactive: -1.59%.
For `Cc1ccc2c(c1)C(=O)C(=O)N2Cc1ccc(OCCC(C)C)cc1`, the “activity change, negative = cytotoxicity” value was inactive: -12.3%.
With `COc1ccc(NC(=O)c2oc3ccc(S(=O)(=O)N4CCCCC4)cc3c2C)cc1Cl` the “activity change, negative = cytotoxicity” value was inactive: 0.0538%.
For `COc1ccc(NC(=O)c2cc(C(C)=O)n3ccccc23)cc1`, the “activity change, negative = cytotoxicity” value was inactive: 13.9%.
For `Cc1ccc(CN2CCC(CNC(=O)c3cnn(-c4ccccc4)c3C3CCN(C(=O)OC(C)(C)C)CC3)CC2)cc1`, the “activity change, negative = cytotoxicity” value was inactive: -0.673%.
For `O=C(O)c1ccc(NCc2nc3ccccc3n2CCOc2ccccc2Cl)cc1`, the “activity change, negative = cytotoxicity” value was inactive: -11.1%.
For `O=C(CSc1nc(=O)n(Cc2cccnc2)c2c1CCC2)Nc1cccc(Cl)c1`, the “activity change, negative = cytotoxicity” value was inactive: 5.9%.
